# Reference: PubChem BioAssay AID686971 (National Center for Advancing Translational Sciences (NCATS), 2013)
# About 7,500 (2.1%) of roughly 360,000 compounds were called active. The shares of active, inactive and inconclusive entries below differ from those in the screen. The call rests on the fitted dose curve; in most records, active means well fitted cell-killing curve with a large enough effect; inconclusive means small, poorly fitted or top-dose-only effect, or effect the other way, or another doubt; inactive means no such curve, though single readings can be large or run the other way. Potencies of inconclusive entries are left out as doubtful fits.
# Assay: qHTS for induction of synthetic lethality in tumor cells producing 2HG: qHTS for the HT-1080-IDH1KD cell line;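 on activity, negative = toxicity: 0% = DMSO wells and -100% = cell-free medium wells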
# Conditions: HT-1080 IDH1 knockdown viability, ATP luminescence, 48 h; activity, negative = toxicity: at 46.1 µM (top of the series) unless noted
# How it was run: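 Knockdown cells (IDH1KD HT-1080) received compounds 2 h after plating at 750 cells/well and were kept 48 h at 37 °C in 5% FBS RPMI. A CellTiter-Glo luminescence read gave % activity for curve fitting.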
# Potency means the concentration at half of the fitted maximal effect; tags describe the fitted curve by direction and shape.
Structure (SMILES),Potency,"activity, negative = toxicity"
O=C1Nc2ccccc2C(=O)N2c3ccccc3NC(=O)C12 (stereo unspecified),inactive,–
CC(Nc1nc(-c2ccc(Cl)cc2)cs1)c1nc2cc(Cl)c(N3CCCCC3)cc2n1CCOCCO (stereo unspecified),"inconclusive [cytotoxic, single point]",–
Cc1cccc(N2CCN(C(=O)Cn3ccc4ccccc4c3=O)CC2)c1C,"inconclusive [cytotoxic, single point]",–
Cc1ccc2nc(-c3ccc(NC(=O)COC(=O)c4ccco4)cc3)sc2c1,"inconclusive [cytotoxic, single point]",–
CN(C)CCNc1ncnc2c1cnn2-c1ccc(Cl)cc1,"inconclusive [cytotoxic, single point]",–
COC(=O)/C=C/c1oc2ccccc2c1C,inactive,–
C=CCC[C@H](Cc1ccc(F)cc1)C(=O)OC[C@@H](Cc1c[nH]c2ccccc12)NC(=O)[C@@H](CC=C)CC(=O)N(CCO)Cc1ccccc1,"inconclusive [cytotoxic, single point]",–
COc1ccc(-c2nc(C(N)=O)c3[nH]c(=O)n(-c4cccc(Cl)c4)c3n2)cc1OC,active: 16.4 µM,–
OCC1(Cc2cccc(C(F)(F)F)c2)CCN(Cc2cc3ccccc3o2)CC1,active: 18.4 µM,–
CCCC(=O)NC(c1ccc(C)cc1)c1ccc2cccnc2c1O (stereo unspecified),"inconclusive [cytotoxic, full curve]",–
Cc1cccc(Sc2c(C=O)c3ccccc3n2C)c1,"inconclusive [cytotoxic, single point]",–
COc1ccc(C2=Nc3ccccc3NC(=O)C2N(Cc2ccccc2)C(=O)C2=NNC(=O)CC2)cc1 (stereo unspecified),inactive,–
CCc1ccc2nc(NC(=O)c3cc(C)on3)sc2c1,active: 6.51 µM,–
CCOc1cc(-c2cc(-c3ccc(N)cc3)nc(N)c2C#N)ccc1O,"inconclusive [cytotoxic, single point]",–
COc1cc(NC(=O)c2ccco2)c(OC)cc1NC(=O)CSc1nnc(-c2cccs2)n1C,"inconclusive [cytotoxic, single point]",–
Cc1cccc(NS(=O)(=O)c2ccc(-c3cnc(C4CC4)o3)cc2)c1,"inconclusive [cytotoxic, full curve]",–
COC(=O)c1ccccc1NC(=O)c1cc2n(n1)C(C(F)F)CC(C(F)F)N2 (stereo unspecified),"inconclusive [cytotoxic, partial curve]",–
CCCCCCCCNc1ccccc1S(=O)(=O)NCc1ccccc1,"inconclusive [cytotoxic, single point]",–
COc1cc2c(cc1OC)C(C)N(C(=O)Nc1cc(C)cc(C)c1)CC2 (stereo unspecified),active: 7.31 µM,–
CC(=O)NC(CC(=O)NNC(=O)c1cc2ccccc2cc1O)c1ccccc1 (stereo unspecified),"inconclusive [cytotoxic, partial curve]",–
CCN1CNC(=S)N(c2cc(C)ccc2C)C1,"inconclusive [rising, partial curve, poor fit]",–
Cc1ccc(OCC(=O)Nc2ccc(-c3nc4ncccc4o3)cc2)c(C)c1,"inconclusive [cytotoxic, single point]",–
COCCNc1nc(NCCNC(C)=O)c2sc(-c3ccccc3)cc2n1,"inconclusive [cytotoxic, partial curve, poor fit]",–
O=C(/C=C/c1ccccc1)NC1CCSC1=O (stereo unspecified),–,inconclusive: 30.2%

Structure (SMILES),Potency,"activity, negative = toxicity"
COC(=O)CC1COc2ccccc2N1S(=O)(=O)c1ccc(OC)cc1 (stereo unspecified),active: 10.3 µM,–
Cc1cccn2c(=O)c3cc(C#N)c(=NC(=O)c4ccco4)n(Cc4ccco4)c3nc12,–,inconclusive: 30.1%
COc1ccc(-n2c(-c3ccc(C)cc3)n[nH]c2=S)cc1,inactive,–
CC(C)Cn1c(N)c(C(=O)CSc2ccc3c(c2)OCCO3)c(=O)n(C)c1=O,"inconclusive [cytotoxic, single point]",–
COCCNC(=O)C(c1ccncc1)N(C(=O)Cn1nnc2ccccc21)c1ccc(OC)cc1 (stereo unspecified),inactive,–
CCOC(=O)[C@]12CCC=C1N(Cc1ccc3c(c1)OCO3)C(=O)[C@H](CC(=O)N1CCOCC1)C2,inactive,–
CCOC(=O)Nc1nc(-c2ccccc2)c(C(=O)c2ccc(Cl)cc2)s1,active: 0.517 µM,–
CCCCCCn1c(=O)n2n(c1=O)C[C@]1(OC(=O)NCC3CCCCC3)CN(S(=O)(=O)c3ccc(C)cc3)C[C@]1(O)C2,"inconclusive [cytotoxic, single point]",–
Cc1cc(Nc2cccc(Br)c2)c2ccccc2n1,"inconclusive [cytotoxic, partial curve]",–
O=C(CSc1nnc(NC(=O)C2CC2)s1)Nc1ccccc1Cl,"inconclusive [cytotoxic, partial curve]",–
COc1ccc(/C=C/C(=O)c2cc(F)ccc2OC(=O)c2ccccc2C)cc1OC,active: 3.26 µM,–
COCCCNC(=O)c1ccc(Cn2c(=O)c3ccccc3n(Cc3ccccc3C)c2=O)cc1,active: 16.4 µM,–
O=C(CSc1ccccc1C(=O)NCc1ccccc1)NC1CCCCCCC1,inactive,–
COc1ccc(NC(=O)c2c(-c3ccccc3Cl)noc2C)c(OC)c1,"inconclusive [cytotoxic, single point]",–
Cc1ccc(C(NC(=O)C2CCN(CCOc3ccc(Cl)cc3)CC2)c2ccccn2)cc1 (stereo unspecified),"inconclusive [cytotoxic, single point]",–
C=CCN1/C(=C(\C#N)C2=NS(=O)(=O)c3ccccc32)N(C)c2ccccc21,active: 7.08 µM,–
COc1cc(OC)c(OC)cc1CCC(C)NCCC(c1ccccc1)c1ccccc1 (stereo unspecified),"inconclusive [cytotoxic, single point]",–
O=C(COC(=O)c1cccnc1Cl)c1ccc(OC(F)F)cc1,inactive,–
CC(C)C(=O)Nc1ccc(C(=O)NCc2cccnc2)cc1,active: 23.1 µM,–
COc1ccc(C(=O)NCCCOC(C)C)cc1OC1CCN(C(C)=O)CC1,inactive,–
CCC(=O)N1CCN(c2ccccc2NC(=O)COc2cccc(C)c2)CC1,inactive,–
CC(=O)Nc1c(O)c2cccc3c2n(c1=O)CCC3,inactive,–
C/C(=N\NC(=O)c1cc(O)cc(O)c1)c1ccc(NC(=O)Cc2ccccc2)cc1,"inconclusive [cytotoxic, partial curve]",–
Cc1ccc(S(=O)(=O)N2c3cc(C)ccc3OCC2C(C)(C)C)cc1 (stereo unspecified),"inconclusive [cytotoxic, single point]",–

Structure (SMILES),Potency,"activity, negative = toxicity"
Cc1ccc(S(=O)(=O)N(CC(=O)N=Nc2c(O)[nH]c3ccccc23)c2cccc(C)c2)cc1,active: 13 µM,–
COc1ccc(CNC(=O)c2sc(=O)n(Cc3ccc(-c4ccccc4)cc3)c2C)cc1OC,"inconclusive [cytotoxic, single point]",–
C[C@@H]1CN([C@H](C)CO)S(=O)(=O)c2ccc(C#Cc3ccccc3F)cc2O[C@@H]1CN(C)C(=O)Cc1ccccc1,"inconclusive [cytotoxic, single point]",–
O=C(/C=C/c1ccccc1O)c1ccco1,"inconclusive [cytotoxic, single point]",–
Cc1ccc(/C=N/NC(=O)c2c(C)nc3ccc(Br)cn23)cc1,active: 0.58 µM,–
O=C1/C(=C/c2ccc([N+](=O)[O-])cc2)C=C(c2ccccc2)N1c1ccc(O)cc1,"inconclusive [cytotoxic, full curve]",–
CC(C)Oc1cccc(C(=O)Nc2ccc(CN3CCOCC3)cc2)c1,"inconclusive [cytotoxic, single point]",–
CCCOc1cccc(C2C(C(=O)c3cccs3)=C(O)C(=O)N2Cc2cccnc2)c1 (stereo unspecified),–,inconclusive: -21% [cytotoxic]
O=C(CN1C(=O)c2cccc3cccc1c23)Nc1ccccc1,"inconclusive [cytotoxic, single point]",–
Cc1cc(C)cc(OCC(=O)Nc2cc(C)on2)c1,–,inconclusive: 30.1%
COc1ccc(C(=O)Nc2nnc(-c3cccs3)s2)cc1,"inconclusive [cytotoxic, full curve]",–
Cc1cc(C(=O)NC2CCCCC2)c(C)o1,inactive,–
O=C1OCCN1C(=O)[C@H]1[C@H](c2ccc(Cl)cc2)C(c2cccc(Cl)c2)=NN1c1ccc(Br)cc1,"inconclusive [cytotoxic, partial curve]",–
Cc1ccc(OCC(O)CNS(=O)(=O)c2ccccc2C(=O)O)cc1 (stereo unspecified),inactive,–
CC(=O)Nc1ccc(NC(=O)c2ccc(CN3CCc4ccccc4C3)cc2)cc1,"inconclusive [cytotoxic, single point]",–
Nc1ncnc2nn(C3OC(CO)C(O)C3O)nc12 (stereo unspecified),active: 13 µM,–
COc1ccc(C(=O)Nc2ccc(C(=O)O)cc2NC(=O)c2ccc(OC)cc2)cc1,inactive,–
O=C(CCN(CCO)Cc1ccccc1)Nc1ccc(Br)cc1,"inconclusive [cytotoxic, single point]",–
CC(=O)c1cccc2c(O)c(C3=Nc4ccccc4C3=O)[nH]c12,"inconclusive [cytotoxic, single point]",–
CN(C)c1ccc(N/C=C/C(=O)c2ccco2)cc1,"inconclusive [cytotoxic, single point]",–
CC1(C)CC2CC(C)(CN2/C=N/c2sc3c(c2C#N)CC(C)(C)NC3(C)C)C1 (stereo unspecified),"inconclusive [cytotoxic, single point]",–
CCOC(=O)N1CCN(Cc2nc3ccc([N+](=O)[O-])cc3c(=O)n2-c2ccccc2F)CC1,inactive,–
O=C1CC(C(=O)Nc2cc(Cl)ccc2Cl)n2ncnc2N1 (stereo unspecified),inactive,–
